The numbers were not newly measured in publication PMC11006913, which cites them from elsewhere.

What all share (settings): PBM; conditions not shown; double strand, one strand shown; scale: upbm affinity estimate (log intensity, higher = more binding, comparable within an allelic series)
One series deals with ISX (Homo sapiens) (UniProt Q2M1V0).
In a further series the target is ISX R83Q (Homo sapiens) (UniProt Q2M1V0).
Series [1] deals with NKX2-5 K183E (Homo sapiens) (UniProt P52952).
In series [2] the target is NKX2-5 R161P (Homo sapiens) (UniProt P52952).
The target in series [3] is NKX2-5 R190C (Homo sapiens) (UniProt P52952).
For another series, the target named is T1, PBX4 (Homo sapiens) (UniProt Q9BYU1).
T1 sequence: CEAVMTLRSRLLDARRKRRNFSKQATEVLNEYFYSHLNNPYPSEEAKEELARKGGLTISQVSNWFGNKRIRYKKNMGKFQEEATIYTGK

For series [4], the target named is T2, PBX4 R215Q (Homo sapiens) (UniProt Q9BYU1).
T2 sequence: T1 sequence with R19Q

In series [5] the target is PITX2 L100Q (Homo sapiens) (UniProt Q99697).
Series [6] concerns the target PITX2 R108H (Homo sapiens) (UniProt Q99697).
Series [7] addresses PITX2 R130W (Homo sapiens) (UniProt Q99697).
Series [8] deals with PITX2 T114P (Homo sapiens) (UniProt Q99697).

Positions count from the first letter of the chain named. Some of the results follow.

Consider GCTGGGCC [8-mer GCTGGGCC], for which the binding signal in the series with ISX (Homo sapiens) and in the series with ISX R83Q (Homo sapiens) was 9.61 in each case.

As for CCGCAGCC [8-mer CCGCAGCC], the binding signal in the series with ISX (Homo sapiens) was 9.8; with ISX R83Q (Homo sapiens) it was 9.78.

For the sequence CGGCGGTC [8-mer CGGCGGTC], the binding signal with ISX (Homo sapiens) is 9.54; with ISX R83Q (Homo sapiens), 9.68.

For the sequence ACGCCGGC [8-mer ACGCCGGC], the results for the binding signal with ISX (Homo sapiens) and with ISX R83Q (Homo sapiens) were 9.61 and 9.73, respectively.

Take CCACCGGC [8-mer CCACCGGC]: the binding signal is 9.57 with ISX (Homo sapiens) and 9.66 in the series with ISX R83Q (Homo sapiens).

On to CGACCGCC [8-mer CGACCGCC], for which the binding signal in the series with ISX (Homo sapiens) is 9.56; in the series with ISX R83Q (Homo sapiens), 9.66.

With GAGCGCCC [8-mer GAGCGCCC], the binding signal with ISX (Homo sapiens) and with ISX R83Q (Homo sapiens) was 9.62 each time.

CCCGCGCA [8-mer CCCGCGCA]: the binding signal was 9.74 in the series with ISX (Homo sapiens) and 9.75 with ISX R83Q (Homo sapiens).

As to GAAGGGGA [8-mer GAAGGGGA], the binding signal with ISX (Homo sapiens) was 9.77; in the series with ISX R83Q (Homo sapiens), 9.79.

For the sequence ACCTGGGC [8-mer ACCTGGGC], the binding signal is 9.75 with ISX (Homo sapiens) and 9.62 in the series with ISX R83Q (Homo sapiens).

For the sequence CACGGCGG [8-mer CACGGCGG], the binding signal is 9.65 with ISX (Homo sapiens) and 9.73 with ISX R83Q (Homo sapiens).

For CCGGCGAG [8-mer CCGGCGAG], the figures for the binding signal with ISX (Homo sapiens) and in the series with ISX R83Q (Homo sapiens) were 9.76 and 9.8, respectively.

As to GCCCAGCC [8-mer GCCCAGCC], the binding signal with ISX (Homo sapiens) was 9.77; with ISX R83Q (Homo sapiens), 9.78.

With GCACCCCC [8-mer GCACCCCC], the binding signal with ISX (Homo sapiens) is 9.74; with ISX R83Q (Homo sapiens) it was 9.73.

With CACCCGGC [8-mer CACCCGGC], the binding signal is 9.74 with ISX (Homo sapiens) and 9.73 with ISX R83Q (Homo sapiens).

Consider AGGGGGCG [8-mer AGGGGGCG], for which the binding signal in the series with ISX (Homo sapiens) is 9.54; with ISX R83Q (Homo sapiens) it was 9.68.

On to CCCTGGCG [8-mer CCCTGGCG], for which the binding signal with ISX (Homo sapiens) and with ISX R83Q (Homo sapiens) was 9.67 each time.

Consider GGCCCGCA [8-mer GGCCCGCA], for which the binding signal with ISX (Homo sapiens) was 9.82; with ISX R83Q (Homo sapiens), 9.8.

For GCCCCGGC [8-mer GCCCCGGC], the figures for the binding signal in the series with ISX (Homo sapiens) and with ISX R83Q (Homo sapiens) were 9.49 and 9.62, respectively.

Consider CCGGGTGC [8-mer CCGGGTGC], for which the binding signal was 9.78 with ISX (Homo sapiens) and 9.7 in the series with ISX R83Q (Homo sapiens).

For GGGGGAAC [8-mer GGGGGAAC], the binding signal with ISX (Homo sapiens) is 9.6; in the series with ISX R83Q (Homo sapiens), 9.59.

Turning to GCGGTCAC [8-mer GCGGTCAC], the binding signal is 9.7 with ISX (Homo sapiens) and 9.78 with ISX R83Q (Homo sapiens).

Take GCCGGTCC [8-mer GCCGGTCC]: the binding signal in the series with ISX (Homo sapiens) was 9.66; with ISX R83Q (Homo sapiens) it was 9.62.

As to GCGCAAGC [8-mer GCGCAAGC], the figures for the binding signal with ISX (Homo sapiens) and with ISX R83Q (Homo sapiens) were 9.66 and 9.7, respectively.

Regarding CCTAATCA [8-mer CCTAATCA], the binding signal is 13.4 with ISX (Homo sapiens) and 11.8 in the series with ISX R83Q (Homo sapiens).

For CCGGGAGC [8-mer CCGGGAGC], the binding signal with ISX (Homo sapiens) was 9.78; with ISX R83Q (Homo sapiens), 9.67.

In the case of CTGCTGGC [8-mer CTGCTGGC], the binding signal in the series with ISX (Homo sapiens) was 9.7; with ISX R83Q (Homo sapiens) it was 9.68.

ATACTAAT [8-mer ATACTAAT]: the binding signal with ISX (Homo sapiens) is 13; with ISX R83Q (Homo sapiens), 11.5.

On to CCCCCTTC [8-mer CCCCCTTC], for which the binding signal is 9.54 with ISX (Homo sapiens) and 9.7 with ISX R83Q (Homo sapiens).

Regarding CCCCTGGC [8-mer CCCCTGGC], the binding signal was 9.97 in the series with ISX (Homo sapiens) and 9.8 with ISX R83Q (Homo sapiens).

In the case of CACGGGCC [8-mer CACGGGCC], the results for the binding signal with ISX (Homo sapiens) and in the series with ISX R83Q (Homo sapiens) were 9.63 and 9.59, respectively.

Consider ACGGAGGC [8-mer ACGGAGGC], for which the binding signal in the series with ISX (Homo sapiens) is 9.8; in the series with ISX R83Q (Homo sapiens), 9.77.

With ATAATAAG [8-mer ATAATAAG], the values for the binding signal with ISX (Homo sapiens) and with ISX R83Q (Homo sapiens) were 13.7 and 11.8, respectively.

Consider CCGGGCGC [8-mer CCGGGCGC], for which the binding signal in the series with ISX (Homo sapiens) is 9.68; with ISX R83Q (Homo sapiens), 9.8.

On to AGCCGGCA [8-mer AGCCGGCA], for which the binding signal was 9.88 with ISX (Homo sapiens); 9.74 with ISX R83Q (Homo sapiens); 10 in series [1]; 9.91 in series [2]; 9.97 in series [3].

With GCCGGGAC [8-mer GCCGGGAC], the binding signal in the series with ISX (Homo sapiens) is 9.72; with ISX R83Q (Homo sapiens), 9.73.

In the case of CGCGGGCC [8-mer CGCGGGCC], the binding signal with ISX (Homo sapiens) is 9.73; with ISX R83Q (Homo sapiens) it was 9.71.

Turning to CCCTGGTC [8-mer CCCTGGTC], the binding signal with ISX (Homo sapiens) is 9.72; with ISX R83Q (Homo sapiens), 9.75; with PBX4 (Homo sapiens), 9.63; in series [4] it was 9.76.

In the case of GCCGTCGC [8-mer GCCGTCGC], the binding signal with ISX (Homo sapiens) is 9.86; with ISX R83Q (Homo sapiens), 9.76; in series [1] it was 10.2; in series [2] it was 10.2; in series [3] it was 10.2.

Consider CGAGCCCG [8-mer CGAGCCCG], for which the binding signal with ISX (Homo sapiens) is 9.84; with ISX R83Q (Homo sapiens) it was 9.78.

Take GGGGAACC [8-mer GGGGAACC]: the figures for the binding signal with ISX (Homo sapiens) and with ISX R83Q (Homo sapiens) were 9.68 and 9.8, respectively.

In the case of CCCCGACC [8-mer CCCCGACC], the binding signal in the series with ISX (Homo sapiens) is 9.8; with ISX R83Q (Homo sapiens), 9.76.

With AGCTGCCG [8-mer AGCTGCCG], the binding signal in the series with ISX (Homo sapiens) is 9.77; with ISX R83Q (Homo sapiens) it was 9.82.

Turning to ACACGTGT [8-mer ACACGTGT], the results for the binding signal in the series with ISX (Homo sapiens) and with ISX R83Q (Homo sapiens) were 9.85 and 9.83, respectively.

In the case of CCCCCCCC [8-mer CCCCCCCC], the binding signal in the series with ISX (Homo sapiens) is 9.28; in the series with ISX R83Q (Homo sapiens), 9.6.

Consider GCCCCCGC [8-mer GCCCCCGC], for which the values for the binding signal in the series with ISX (Homo sapiens) and with ISX R83Q (Homo sapiens) were 9.52 and 9.55, respectively.

As to GCCGGGGA [8-mer GCCGGGGA], the binding signal with ISX (Homo sapiens) is 9.59; with ISX R83Q (Homo sapiens), 9.7.

In the case of CGCCTAGC [8-mer CGCCTAGC], the values for the binding signal with ISX (Homo sapiens) and with ISX R83Q (Homo sapiens) were 9.64 and 9.68, respectively.

Consider GGCCGCCA [8-mer GGCCGCCA], for which the binding signal was 9.83 with ISX (Homo sapiens) and 9.72 with ISX R83Q (Homo sapiens).

Take CAGGCAGG [8-mer CAGGCAGG]: the binding signal in the series with ISX (Homo sapiens) was 9.68; in the series with ISX R83Q (Homo sapiens), 9.86.

Take GCCTGTCC [8-mer GCCTGTCC]: the results for the binding signal with ISX (Homo sapiens) and with ISX R83Q (Homo sapiens) were 9.83 and 9.8, respectively.

AGGACCCG [8-mer AGGACCCG]: the binding signal is 9.73 with ISX (Homo sapiens); 9.8 in the series with ISX R83Q (Homo sapiens); 8.43 in [5]; 8.08 in series [6]; 8.01 in series [7]; 8.14 in [8].

As for AAGTAGCA [8-mer AAGTAGCA], the binding signal was 11.3 with ISX (Homo sapiens) and 10.5 in the series with ISX R83Q (Homo sapiens).

For CAGACCCC [8-mer CAGACCCC], the figures for the binding signal in the series with ISX (Homo sapiens) and with ISX R83Q (Homo sapiens) were 9.52 and 9.73, respectively.

As to CCAGTGGG [8-mer CCAGTGGG], the binding signal is 9.75 in the series with ISX (Homo sapiens) and 9.82 with ISX R83Q (Homo sapiens).

For the sequence CGCGCCCG [8-mer CGCGCCCG], the binding signal was 9.81 with ISX (Homo sapiens) and 9.84 in the series with ISX R83Q (Homo sapiens).

On to CCACTGGC [8-mer CCACTGGC], for which the binding signal is 9.74 with ISX (Homo sapiens) and 9.81 with ISX R83Q (Homo sapiens).

Consider CTGGGCCC [8-mer CTGGGCCC], for which the results for the binding signal with ISX (Homo sapiens) and with ISX R83Q (Homo sapiens) were 9.71 and 9.65, respectively.

For the sequence GGGGCCCC [8-mer GGGGCCCC], the binding signal was 9.67 in the series with ISX (Homo sapiens) and 9.69 in the series with ISX R83Q (Homo sapiens).

For the sequence CCCGCGAC [8-mer CCCGCGAC], the binding signal was 9.72 in the series with ISX (Homo sapiens) and 9.69 with ISX R83Q (Homo sapiens).

As to GCGGAGCC [8-mer GCGGAGCC], the binding signal was 9.74 in the series with ISX (Homo sapiens) and 9.75 with ISX R83Q (Homo sapiens).

ACCGGGCC [8-mer ACCGGGCC]: the values for the binding signal with ISX (Homo sapiens) and in the series with ISX R83Q (Homo sapiens) were 9.86 and 9.82, respectively.

As for GGCCTCCC [8-mer GGCCTCCC], the binding signal with ISX (Homo sapiens) is 9.77; in the series with ISX R83Q (Homo sapiens) it was 9.77; in [1] it was 10; in series [2], 10.2; in [3], 9.97.

On to GCCTCGCC [8-mer GCCTCGCC], for which the binding signal in the series with ISX (Homo sapiens) was 9.5; in the series with ISX R83Q (Homo sapiens), 9.6.

GGCAGCCC [8-mer GGCAGCCC]: the binding signal with ISX (Homo sapiens) is 9.77; with ISX R83Q (Homo sapiens), 9.74.
